# Laboratory results published in PubChem BioAssay AID1345082 (National Center for Advancing Translational Sciences (NCATS), 2018).
# “And” between values parts separate entries of the source, which are not always exact repeats. Identical values can stand only once. Out of some 94,000 compounds screened, about 4,000 (4.3%) were called active. The shares of active, inactive and inconclusive entries below differ from those in the screen. Calls follow the shape of the dose curve; as a rule, active = well fitted inhibition curve with a large enough effect; inconclusive = small, poorly fitted or top-dose-only effect; inactive = no such curve, though single readings can be large or run the other way. Potencies of inconclusive entries are doubtful fits and often do not repeat.
# Assay: Cytotoxic Profiling in NIH 3T3 Cell Line of Diverse Libraries Using Quantitative High-Throughput Screening; also: nearly all actives have a fitted effect of over 55% in size
# Conditions: NIH 3T3 viability, CellTiter-Glo ATP luminescence, 48-72 h; series mostly up to 96.7 µM
# Summary of the method: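 NIH 3T3 cells at 400 cells/well received 23 nL of compound by pintool and were incubated 48 or 72 h at 37 °C. Viability was read as ATP-coupled CellTiter-Glo luminescence.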
# Potency is read from the fitted curve at half-maximal effect; tags tell the direction and shape of the fitted curve.
row,Structure (SMILES),Potency
1,Cc1cc(OC2CN([S+](=O)([O-])c3cccs3)C2)ccc1F,"inconclusive: 56.2 µM [inhibitor, partial curve, poor fit] and inconclusive: 89.1 µM [inhibitor, partial curve, poor fit]"
2,CNC(=O)C1CCN(C(=O)c2coc(COc3ccc4ccc(OC)cc4c3)n2)C1 (configuration not stated),"inconclusive: 44.7 µM [inhibitor, partial curve]"
3,CC(C)(C)c1nnc([C@H]2CCN(Cc3cnc4ccccc4c3)C2)o1,"inconclusive: 100 µM [inhibitor, partial curve, poor fit]"
4,O=C(Nc1ccc(F)cc1)C1CCCCN1Cc1ccc(-c2cccs2)cc1 (configuration not stated),"inconclusive: 31.6 µM [inhibitor, partial curve]"
5,O=C1[C@@H]2C[C@@H](CN2C(=O)c2cncnc2)Oc2ccccc2N1Cc1ccc(OC(F)(F)F)cc1,inactive
6,CC(=O)NC1(C)CCN(Cc2cnc(-c3ccc4c(ccn4C)c3)s2)CC1,inactive
7,CN(C)C(=O)c1cc(-c2ccccc2F)nc2c1cnn2C,"inconclusive: 100 µM [inhibitor, partial curve]"
8,COc1ccc(CC(=O)NC2CCN(Cc3ccc(-c4ccsc4)cc3)C2)cc1 (configuration not stated),"inconclusive: 39.8 µM [inhibitor, partial curve, poor fit]"
9,COC[C@H]1CCCN1C[C@@H]1C=C(C)[C@H](Cc2nnc(-c3cccnc3)o2)C[C@H]1C(C)C,"inconclusive: 100 µM [inhibitor, partial curve, poor fit]"
10,Cn1ncc2c(C(=O)NC3CCOC3)cc(-c3cccc(C(F)(F)F)c3)nc21 (configuration not stated),"inconclusive: 50.1 µM [inhibitor, partial curve, poor fit]"
11,O[C@H]1CC[C@@H](Cc2cc(-c3ccc(F)cc3)on2)O[C@@H]1CNC1CCNCC1,inactive
12,CCCC(=O)N1CC2(CCCN2Cc2cccnc2)Cc2ccccc21 (configuration not stated),inactive
13,O=C(CN1CCCc2nc(-c3ccncc3)ncc2C1=O)N1CCc2ccccc2C1,"inconclusive: 44.7 µM [inhibitor, partial curve]"
14,CCOC(=O)[C@@H]1CN(C(=O)N(C)C)[C@H]2c3ccc(OC)cc3O[C@@H]12,"inconclusive: 28.2 µM [inhibitor, partial curve]"
15,COC(=O)C1=C(C)N(Cc2ccccc2F)C(=O)CC1c1ccc(F)cc1F (configuration not stated),"inconclusive: 44.7 µM [inhibitor, partial curve, poor fit]"
16,O=C(Nc1ccccc1Cl)C1CN(C2CCCC2)C(=O)N1 (configuration not stated),inactive
17,O=C(NC1CCCN(Cc2ccc(-c3cncnc3)cc2)C1)c1ccc(C(F)(F)F)cc1 (configuration not stated),"inconclusive: 50.1 µM [inhibitor, partial curve, poor fit]"
18,O=C(CCc1ccc(CC2CCN(C(=O)NCC3CCCO3)CC2)cc1)NCC1CC1 (configuration not stated),"inconclusive: 50.1 µM [inhibitor, partial curve, poor fit]"
19,O=C1CC(c2ccccc2)N(C(=O)CNC(=O)NCc2ccc(F)cc2)CCCCCN1 (configuration not stated),inactive
20,CCOCCNC(=O)C1CCCN1Cc1ccc(-c2cc(C)cc(C)c2)cc1 (configuration not stated),"inconclusive: 44.7 µM [inhibitor, partial curve, poor fit]"
21,COC(=O)C1=CN(CC(=O)N(C)c2cccc(C)c2)S(=O)(=O)N=C1C,inactive

row,Structure (SMILES),Potency
1,O=C(Cc1ccc(Cl)cc1)N1CCC2(CC1)NC(=O)N(c1cccc(F)c1)N2,"inconclusive: 44.7 µM [inhibitor, partial curve, poor fit]"
2,CC(C)CC(=O)N1CCC(N2C(=O)C3(CCCC3)C2c2ccccc2)CC1 (configuration not stated),active: 44.7 µM
3,Cc1ccsc1C(=O)N1CCC2(CC1)NC(=O)N(c1ccccc1)N2,"inconclusive: 35.5 µM [inhibitor, partial curve, poor fit]"
4,c1ccc(CN2CCC(Cc3ccc(CN4CCCC4)cc3)CC2)nc1,"inconclusive: 44.7 µM [inhibitor, partial curve, poor fit]"
5,CCOc1ccc2c(n1)CCN(C(=O)Nc1ccccc1OCC)C2,"inconclusive: 50.1 µM [inhibitor, single point]"
6,Cc1nc([C@H]2CCN(Cc3ccccc3)C[C@H]2NC(=O)C2CCOCC2)n[nH]1,inactive
7,O=C(Nc1cc(Cl)cc(Cl)c1)N1CCCC1c1nncn1C1CCCC1 (configuration not stated),"inconclusive: 17.8 µM [inhibitor, full curve, poor fit]"
8,COc1ccc(C(=O)N2CCCC3(CC(c4cccc(C(F)(F)F)c4)=NO3)C2)cc1 (configuration not stated),"inconclusive: 50.1 µM [inhibitor, single point]"
9,O=c1c2nc(Nc3cccc(F)c3)ccc2ncn1-c1cccnc1,"inconclusive: 112 µM [inhibitor, single point]"
10,COCc1ccc2c(c1)c(OC(C)(C)C(=O)NCCCn1ccnc1)nn2CCC(C)C,"inconclusive: 12.6 µM [inhibitor, partial curve, poor fit]"
11,COc1ccc(CCc2nc3nccc(-c4cccs4)n3n2)cc1,"inconclusive: 44.7 µM [inhibitor, partial curve, poor fit]"
12,O=C(C[C@H]1NC(=O)c2ccccc2NC1=O)Nc1ccc(F)c(F)c1F,"inconclusive: 70.8 µM [inhibitor, single point]"
13,COc1ccc(-c2nc(C(=O)NCc3cccnc3)n3ccccc23)cc1,"inconclusive: 50.1 µM [inhibitor, partial curve, poor fit]"
14,Cn1nccc1OCc1cn2c(=O)n(C)cc(-c3ccsc3)c2n1,"inconclusive: 56.2 µM [inhibitor, partial curve, poor fit]"
15,COCc1ncc(C)n1C1CCN(C(=O)CCc2c[nH]c3ccccc23)C1 (configuration not stated),inactive
16,O=C(NC1CCCN(c2ccnc3ccnn23)C1)c1ccc(C(F)(F)F)cc1 (configuration not stated),"inconclusive: 50.1 µM [inhibitor, partial curve, poor fit]"
17,COCc1cccc(-c2n[nH]c3c2CC(=O)N(CC2CCOCC2)C3)c1,"inconclusive: 25.1 µM [inhibitor, partial curve, poor fit]"
18,CNC(=O)[C@H]1C[C@H](Oc2ccccc2)CN1C(=O)c1cccc(C)c1,inactive
19,Cc1ccc(-c2cccc(CN3CCCC(NC(=O)c4ccccc4F)C3)c2)cc1Cl (configuration not stated),"inconclusive: 39.8 µM [inhibitor, partial curve, poor fit]"
20,CC(C)C(=O)N1CCC(N2C(=O)C(O)C23CCCCC3)CC1 (configuration not stated),inactive
21,CSCC(=O)N[C@H]1CCN2C(=O)c3ccccc3NC(=O)[C@@H]2C1,inactive

row,Structure (SMILES),Potency
1,CCN1C(=O)COC[C@@H]1[C@H](O)c1ccc(NC(=O)c2cccc(F)c2)cc1,inactive
2,Cc1noc(C)c1S(=O)(=O)N(C)C1CCc2ccccc21 (configuration not stated),"inconclusive: 89.1 µM [inhibitor, partial curve]"
3,Cc1cccc(-c2cccc(CN3CCC(NC(=O)c4ccc(Cl)nc4)CC3)c2)c1,active: 17.8 µM
4,Cc1ccccc1N1Cc2c(NCC(C)(C)C)ncnc2N(C)CC1=O,"inconclusive: 50.1 µM [inhibitor, partial curve, poor fit]"
5,CCN1CCCCC12Cc1ccccc1CN(C(=O)CCCN(C)C)C2 (configuration not stated),inactive
6,COc1ccccc1-c1ccc(CN2CCCCC2C(=O)NCc2cccc(Cl)c2)cc1 (configuration not stated),"inconclusive: 35.5 µM [inhibitor, partial curve]"
7,COc1ccc(Nc2ccnc(N3CCN([S+](=O)([O-])c4cccc(C(F)(F)F)c4)CC3)n2)cc1,"inconclusive: 20 µM [inhibitor, full curve, poor fit]"
8,O=C(C1CCCN1C(=O)c1ccc(C(F)(F)F)cc1)N1CCC(N2Cc3cccn3C2=O)CC1 (configuration not stated),"inconclusive: 50.1 µM [inhibitor, single point]"
9,Cc1cc(C2CCCN2C(=O)c2cc(F)ccc2F)on1 (configuration not stated),inactive
10,C[C@@]1(NC(=O)Cc2ccccc2)OC[C@H]2CC[C@@H](C(=O)Nc3ccc(OC(F)(F)F)cc3)N2C1=O,"inconclusive: 39.8 µM [inhibitor, partial curve, poor fit]"
11,Cc1ccsc1CN1CCCCCNC(=O)[C@@H]2CCC[C@@H]21,"inconclusive: 44.7 µM [inhibitor, partial curve, poor fit]"
12,CCCc1nn(-c2cccc(C)c2)c(=O)n1CC(=O)NCc1ccc(C)o1,"inconclusive: 50.1 µM [inhibitor, partial curve, poor fit]"
13,COc1ccc(NC(=O)c2cc3n(n2)CC(c2ccc4c(c2)OCO4)OC3)cc1Cl (configuration not stated),inactive
14,O=C(COc1cccc(-c2nnc3n2CCCC3)c1)Nc1ccc(Br)cc1,"inconclusive: 50.1 µM [inhibitor, partial curve, poor fit]"
15,CC1CCC2(CC1)NC(=O)N(CC(=O)NCc1cccc(Br)c1)C2=O (configuration not stated),"inconclusive: 70.8 µM [inhibitor, single point]"
16,CN1CC(=O)N(C2CCCC2)Cc2c(NCCc3ccc(F)cc3)ncnc21,"inconclusive: 50.1 µM [inhibitor, partial curve, poor fit]"
17,O=C1COCC2(CN(c3ccccc3)C2)CN1c1ccc(OC(F)(F)F)cc1,active: 89.1 µM
18,CCc1nn(-c2ccc(OC)cc2)c(Oc2ccccc2F)c1CCC(=O)NCCOC,"inconclusive: 44.7 µM [inhibitor, partial curve, poor fit]"
19,CC(C)C1=NOC2(CCN(Cc3cccc(C(F)(F)F)c3)CC2)C1,"inconclusive: 50.1 µM [inhibitor, partial curve, poor fit]"
20,CC(C(=O)NC1CC1)N1C(=O)COc2ccc(C(=O)COc3cccc(Cl)c3)cc21 (configuration not stated),"inconclusive: 50.1 µM [inhibitor, partial curve, poor fit]"
